Measurements from the supplement of paper PMC3334620.
Over roughly 33,000 sequences, “E-score (-0.5 to 0.5)” has its median near -0.056; the highest 2% begin near 0.38. This is one part of the list.

What follows are sequences tested against Stb4 (UniProt P50104) (assay: PBM E-score (8-mer binding enrichment) (E-score (-0.5 to 0.5)); higher = stronger / more preferred TF binding; most listed sequences are background and not binding sites). Conditions: protein concentration: 200 nM; construct: GST-DNA-binding domain.
In short: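 The E-score, a modified Wilcoxon-Mann-Whitney statistic, was computed by the Universal PBM Analysis Suite for every ungapped eight-base word pooled with its reverse complement. Scans behind it were normalised with masliner after bound GST-tagged yeast transcription factors were detected with fluorescent anti-GST. The proteins, at about 100-200 nM, had been applied to universal all-10-mer Agilent arrays made double-stranded by primer extension.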

| Sequence | PBM E-score |
| --- | --- |
| ACTTTCTC | 0.0197 |
| GTCGATCA | -0.154 |
| GGTTTCAA | 0.0851 |
| GCCCGGTA | 0.263 |
| ATTCGTTA | -0.121 |
| AATCTTGA | -0.242 |
| ATTTTCCG | 0.424 |
| CGTAAATA | 0.059 |
| ATTGAGCG | -0.105 |
| CGGACTGC | 0.0974 |
| AATGCATG | -0.0311 |
| AAGCCATG | -0.117 |
| ATGTTAAC | -0.0494 |
| AGTCTCAG | -0.223 |
| ATCTACTA | -0.0028 |
| ACTGTTTA | -0.241 |
| GACACCGA | 0.16 |
| AGCAGCTA | -0.247 |
| AACATAAG | 0.0445 |
| AACCCACC | 0.137 |
| CACTCAGG | -0.181 |
| GATACTTA | 0.113 |
| CCAATCGA | -0.207 |
| TGGCAGAA | -0.125 |
| CCCTGTTC | -0.112 |

| Sequence | PBM E-score |
| --- | --- |
| GATCCCCA | -0.0239 |
| CGAATCTA | -0.0261 |
| CAACTGGG | -0.134 |
| GAGCACAC | -0.207 |
| ATCTCGCG | -0.0115 |
| CTTCCAAG | -0.132 |
| GTTGCATA | -0.069 |
| ATATGGAC | -0.185 |
| CCCATTCC | 0.104 |
| GCAGGCCC | -0.0954 |
| CTTCAACC | -0.0399 |
| AAGATTAG | -0.11 |
| AAACTCCC | 0.212 |
| AATCGCTA | -0.134 |
| CCTAAAGC | -0.246 |
| TGAACTCA | -0.222 |
| GCCCTGAA | -0.131 |
| GGGAGTAC | 0.0576 |
| ATCCATAC | -0.121 |
| ACCCAACG | -0.0446 |
| ATGAAATA | 0.0478 |
| GGGTAGAA | 0.173 |
| ACACCGTC | 0.0889 |
| AGCGCCCG | 0.122 |
| CTAGTAGA | 0.0929 |

| Sequence | PBM E-score |
| --- | --- |
| CTTGGGAA | -0.0852 |
| CACGGCCC | 0.0623 |
| AATAGAAC | -0.0574 |
| GCGTTGAA | -0.047 |
| CCGCGCCA | 0.0769 |
| CAGTTGAC | -0.0683 |
| ATTTTCGA | -0.256 |
| GATGTCCC | 0.183 |
| GCCTTAGC | -0.222 |
| GTGGTCTA | -0.185 |
| CCTAACCC | -0.149 |
| GTCAGGAC | -0.21 |
| AACTAGAA | -0.167 |
| ACGATGCT | -0.0738 |
| CCCCTAAG | -0.195 |
| GAATTGGA | -0.05 |
| CGTTGCCC | -0.0386 |
| CATGAACC | 0.136 |
| CACGTAGC | -0.259 |
| TGACTCCA | -0.326 |
| TTAATAAA | 0.123 |
| AACCGCGT | 0.11 |
| CTAGGAGA | -0.223 |
| CACGTTCG | 0.0411 |
| ATACAAAC | 0.0662 |

| Sequence | PBM E-score |
| --- | --- |
| ATAGGCCG | 0.122 |
| CACAGGTC | -0.152 |
| GTACTTAA | -0.176 |
| AACGAACA | 0.135 |
| GGCGCCGA | 0.317 |
| AGCCTGCC | -0.0282 |
| TCCAAAAA | 0.0234 |
| CAACGTCA | -0.0925 |
| GAGACCGA | 0.222 |
| GTAATGGA | -0.0497 |
| GACCATGC | 0.00952 |
| AAGACTTC | -0.0792 |
| CCGTCAGG | 0.025 |
| CCGATACG | 0.307 |
| ACTCCTGG | -0.243 |
| AGTGGTGC | 0.0506 |
| AGGTGAGC | -0.145 |
| ACCCCCTG | -0.244 |
| GCCTGACC | -0.162 |
| AGTGACCG | 0.0828 |
| GCCTAGGC | -0.221 |
| ACGTCTAG | -0.155 |
| CCTGGCTC | -0.141 |
| ACTCACGG | 0.163 |
| CCGACGAA | 0.333 |

| Sequence | PBM E-score |
| --- | --- |
| CAGTAAGA | -0.133 |
| ACCGTGGA | 0.0746 |
| CGCGTGGA | -0.199 |
| CGTGGCAG | -0.212 |
| GTTAGGGA | -0.176 |
| ATGACGAC | 0.0312 |
| GTCAACCA | -0.143 |
| CGTCATTA | -0.11 |
| CGTTTATC | 0.0105 |
| ATCATCCC | 0.052 |
| AACCAACA | -0.0899 |
| ACTAAACA | -0.243 |
| ATAGTGGG | 0.0744 |
| ACCACGCG | -0.102 |
| AGAGAGCT | -0.238 |
| CCAGGCCG | 0.0556 |
| CGCACATA | -0.185 |
| CAAAAGGA | -0.068 |
| AGTTGGGG | -0.0708 |
| ATTCAAGA | 0.0992 |
| GACGAACA | 0.0847 |
| CGCTAGTC | -0.265 |
| GGCAGAAA | 0.172 |
| GTCCTCAC | -0.103 |
| AAGTACAC | -0.143 |

| Sequence | PBM E-score |
| --- | --- |
| CTCGTCTA | -0.198 |
| AACGGCTA | 0.16 |
| ATAGGCCC | 0.065 |
| AAGCAATA | -0.153 |
| ACATTAAC | -0.0715 |
| CTCCTTAC | -0.111 |
| AGCGTCCT | -0.32 |
| AGTTCCGC | 0.324 |
| ACGAGGAT | -0.283 |
| GTTTTTCA | 0.0393 |
| ATCGCATA | -0.0126 |
| GAAAACCA | -0.0221 |
| ATGGGATA | -0.14 |
| ATCCAAAT | -0.0303 |
| TGACTCAA | -0.149 |
| CCCTCTTC | -0.254 |
| ATTCCCAA | -0.115 |
| GCGGGCCC | 0.102 |
| GGTCCTTA | 0.00441 |
| AGATTCCG | 0.389 |
| ACTGCTCA | -0.0464 |
| ACAGCCGG | 0.35 |
| ACCAAGCA | -0.101 |
| CATATTAA | -0.111 |
| CCATTTTC | -0.0108 |

| Sequence | PBM E-score |
| --- | --- |
| AGTTATGC | 0.011 |
| ACCGCCTA | -0.0476 |
| ACAGCACC | 0.0374 |
| GGTTTGGA | -0.0921 |
| AGTTATAA | -0.137 |
| ATGTCGTG | -0.217 |
| CGCATGTA | -0.0158 |
| CGTACAAG | -0.0603 |
| CTAATTCA | -0.231 |
| ACTGTTAC | -0.0793 |
| AAGCTCGA | 0.0225 |
| ATGTCTGA | -0.082 |
| CAGTGAAA | 0.103 |
| ATCCAGCA | -0.289 |
| GCGTATAC | 0.0318 |
| GGTCAGCA | 0.0977 |
| CCGCATAC | 0.103 |
| AGGAGAAC | -0.179 |
| CGTTGTAC | -0.235 |
| ATGGAGTA | 0.0161 |
| GTGAGGGA | -0.209 |
| TAAGCACA | -0.0266 |
